Source: publication PMC4336329 (PLoS ONE, 2015)
About 14,000 (4.5%) of roughly 310,000 compounds showed an effect of 50% or more. The effect is printed as a negative number. The list shows a part of the results.

Biological target: human ether-à-go-go-related gene (hERG) potassium channel (human, UniProt Q12809)
Assay: primary screen, population patch clamp on CHO cells stably expressing hERG
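Note: peak tail current of the secondary pulse compared with the same well before compound.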

human ether-à-go-go-related gene (hERG) potassium channel, sequence (Q12809 whole entry, looked up): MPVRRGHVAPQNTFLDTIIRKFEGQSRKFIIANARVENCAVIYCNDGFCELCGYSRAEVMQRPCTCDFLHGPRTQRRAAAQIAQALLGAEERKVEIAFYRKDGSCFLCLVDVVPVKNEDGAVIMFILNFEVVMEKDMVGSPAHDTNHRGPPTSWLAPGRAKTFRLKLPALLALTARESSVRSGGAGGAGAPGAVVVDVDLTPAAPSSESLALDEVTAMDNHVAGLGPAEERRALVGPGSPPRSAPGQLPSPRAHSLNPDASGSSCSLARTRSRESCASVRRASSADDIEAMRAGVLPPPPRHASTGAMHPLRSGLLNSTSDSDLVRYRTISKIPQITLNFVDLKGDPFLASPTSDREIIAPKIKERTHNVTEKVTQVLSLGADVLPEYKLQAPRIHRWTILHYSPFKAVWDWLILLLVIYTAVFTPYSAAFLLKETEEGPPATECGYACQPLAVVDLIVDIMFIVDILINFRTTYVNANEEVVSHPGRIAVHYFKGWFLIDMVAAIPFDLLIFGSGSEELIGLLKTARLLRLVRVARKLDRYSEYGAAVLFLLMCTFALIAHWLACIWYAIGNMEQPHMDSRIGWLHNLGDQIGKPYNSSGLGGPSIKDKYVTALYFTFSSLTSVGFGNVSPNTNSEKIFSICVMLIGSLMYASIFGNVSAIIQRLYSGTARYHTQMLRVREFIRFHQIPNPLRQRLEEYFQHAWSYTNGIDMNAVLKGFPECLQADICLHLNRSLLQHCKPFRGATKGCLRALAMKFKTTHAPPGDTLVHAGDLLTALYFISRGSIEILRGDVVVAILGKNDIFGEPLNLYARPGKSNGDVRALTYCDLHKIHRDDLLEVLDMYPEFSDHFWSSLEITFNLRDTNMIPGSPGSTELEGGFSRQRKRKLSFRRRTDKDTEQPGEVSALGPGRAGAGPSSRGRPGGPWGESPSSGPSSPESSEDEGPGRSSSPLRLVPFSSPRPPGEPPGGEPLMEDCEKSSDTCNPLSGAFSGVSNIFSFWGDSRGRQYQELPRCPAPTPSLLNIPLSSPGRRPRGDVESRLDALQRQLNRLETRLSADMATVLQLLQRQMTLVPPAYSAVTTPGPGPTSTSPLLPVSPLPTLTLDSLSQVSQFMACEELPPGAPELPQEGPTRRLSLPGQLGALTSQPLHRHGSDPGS

Compared with `Cc1nc2c(c(=O)n1CCC(C)C)c1nc3ccccc3nc1n2Cc1ccc2c(c1)OCO2`, `Cc1[nH]c2ccccc2c1/C=N/NC(=O)CNC(=O)c1ccc2c(c1)OCO2` is higher in “hERG current change (%, negative = inhibition) at 10uM” value: -5.25% for the first, 6.61% for the second.

Going from `COc1ccc(C(=O)Nn2c(SCc3ccc([N+](=O)[O-])cc3)nc3ccccc3c2=O)cc1` to `COc1ccc(-n2c(Cc3ccccc3)nc3ccccc3c2=O)cc1`, the “hERG current change (%, negative = inhibition) at 10uM” value falls from -2.53% to -92.8%.

Going from `Cc1cccc(C)c1NC(=O)CSc1nnc(NC(=O)C2CC2)s1` to `O=C(Cc1cccs1)Nc1nnc(SCc2ccc(F)cc2)s1`, the “hERG current change (%, negative = inhibition) at 10uM” value falls from 24.7% to 11.2%.

Compared with `O=C(N/N=C/c1ccncc1)c1cc2ccccc2cc1O`, `O=C(N/N=C/c1cccc2ccccc12)c1cccc(F)c1` is higher in “hERG current change (%, negative = inhibition) at 10uM” value: -10% for the first, 7.83% for the second.

Going from `CCCCNC(=O)N1CCc2[nH]c3ccccc3c2C1` to `Cc1ccc(C)c(NC(=O)C(=O)NCCc2c[nH]c3ccccc23)c1`, the “hERG current change (%, negative = inhibition) at 10uM” value rises from -6.46% to 11.7%.

Compared with `CCN(CC)CCOc1c(Br)ccc2c1sc1nc3n(c(=O)c12)CCC3`, `CCOc1ccc(/C(O)=C2/C(=O)C(=O)N(CCN(CC)CC)C2c2ccco2)cc1` (centres unmarked) is higher in “hERG current change (%, negative = inhibition) at 10uM” value: -12.4% for the first, -10% for the second.

Compared with `c1ccc2ccccc2c1`, `CN(Cc1ccccc1)C(=O)c1cc2ccccc2o1` is lower in “hERG current change (%, negative = inhibition) at 10uM” value: 20.9% for the first, -23% for the second.

First: C=CCN1C(=O)/C(=C\c2cc(Br)c(OCc3ccccn3)c(OC)c2)SC1=S
Second: COc1ccc(C(C)=O)cc1CSc1ncccn1
The “hERG current change (%, negative = inhibition) at 10uM” value of the first is lower: 14.2% for the first, 22.1% for the second.

Going from `Cc1ccc(NC(=O)c2ccc(F)cc2)nc1` to `CCc1cc2ccc(C)cc2nc1SCC(=O)c1ccc(NC(C)=O)cc1`, the “hERG current change (%, negative = inhibition) at 10uM” value falls from 3.9% to -14.8%.

Compared with `N#Cc1c(-c2cccnc2)c2c([nH]c1=O)-c1ccccc1OC2`, `COc1ccccc1NCC(=O)N/N=C/c1cccnc1` is lower in “hERG current change (%, negative = inhibition) at 10uM” value: -2.55% for the first, -12.8% for the second.

Compared with `COc1ccc(C(=O)COC(=O)[C@H](C)Nc2ccc(C(F)(F)F)cc2[N+](=O)[O-])c(OC)c1`, `COc1ccc2[nH]c(C(=O)O)c(CCNC(=O)/C=C/c3ccc(O)c(OC)c3)c2c1` is higher in “hERG current change (%, negative = inhibition) at 10uM” value: 1.12% for the first, 19.2% for the second.

Compared with `CSc1ccc(-c2nnn(Cc3ccc(C)cc3)n2)cc1`, `CSc1ccc(CNC(=O)Cc2ccc(NC(=O)C3=C(C)OCCS3)cc2)cc1` is higher in “hERG current change (%, negative = inhibition) at 10uM” value: 13.6% for the first, 32.9% for the second.

Going from `C#CCn1c(S(=O)(=O)Cc2ccccc2Cl)nc(-c2ccccc2)c1-c1ccccc1` to `O=S(=O)(Cc1ccccc1)c1cnc2ccccc2n1`, the “hERG current change (%, negative = inhibition) at 10uM” value rises from -7.04% to 5.71%.

First: CC1CCCCN1CC(O)COCc1ccc(Cl)cc1 (centres unmarked)
Second: CN=C(NC1CCCCC1)c1ccc(Cl)cc1.Cl
The “hERG current change (%, negative = inhibition) at 10uM” value of the first is lower: -21.7% for the first, -2.67% for the second.

Compared with `CCOC(=O)/C=C1\CN(Cc2ccc(OC)cc2)S(=O)(=O)c2ccccc21`, `CCOC(=O)c1ccccc1NS(=O)(=O)c1ccc(OC)cc1` is lower in “hERG current change (%, negative = inhibition) at 10uM” value: 2.96% for the first, -8.11% for the second.

Going from `OCCC1CN(C2CCN(c3ccccc3F)CC2)CCN1Cc1ccccc1` (centres unmarked) to `Oc1ccccc1-c1n[nH]c(=S)n1Cc1ccccc1`, the “hERG current change (%, negative = inhibition) at 10uM” value rises from -61.8% to 28.3%.

First: COc1ccc(CN(C)C(=O)c2ccccc2OCc2c(C)noc2C)c(OC)c1
Second: CCOC(=O)c1cc2c(ccn2C)n1Cc1ccccc1C
The “hERG current change (%, negative = inhibition) at 10uM” value of the first is lower: -6.51% for the first, 11.8% for the second.

Compared with `CCOC(=O)CNC(=O)c1sc(NC(=O)c2ccccc2F)nc1C`, `Cc1cc(=O)n2c(C(=O)Nc3ccc(C)c(C)c3)c(C(=O)Nc3ccccc3)sc2n1` is higher in “hERG current change (%, negative = inhibition) at 10uM” value: 3.36% for the first, 15.8% for the second.

Compared with `CNCCc1ccc(O)c(O)c1.Cl`, `Oc1ccc(-c2csc(Nc3ccccn3)n2)cc1O` is lower in “hERG current change (%, negative = inhibition) at 10uM” value: 12.7% for the first, 8.55% for the second.

First: CC(=O)c1ccc2c(c1)Nc1ccccc1S2
Second: O=C(/C=C/Nc1ccc(Br)cc1F)c1ccccc1
The “hERG current change (%, negative = inhibition) at 10uM” value of the first is higher: 0.805% for the first, -6.1% for the second.

First: O=C(Nc1ccc(N2CCOCC2)cc1)c1cc2ccccc2o1
Second: CC(=O)N1CCN(c2ccc(NCc3ccc(C)cc3)cc2)CC1
The “hERG current change (%, negative = inhibition) at 10uM” value of the first is higher: 4.38% for the first, 4.17% for the second.

First: O=C(C1CCCN(S(=O)(=O)c2ccc(Br)s2)C1)N1CCCCCC1 (centres unmarked)
Second: COc1ccc(S(=O)(=O)N2CCCCC2)cc1NC(=O)C1CC1
The “hERG current change (%, negative = inhibition) at 10uM” value of the first is lower: -11.8% for the first, -9.08% for the second.

Compared with `Cc1cc(C)c(NC(=O)CC(=O)c2ccccc2)c(Cl)c1`, `O=C(NCCOc1ccccc1Cl)C(=O)Nc1ccccc1` is lower in “hERG current change (%, negative = inhibition) at 10uM” value: 15.4% for the first, -0.069% for the second.

Compared with `Cc1ccc(C)c(N(C(=O)c2csnn2)C(C(=O)NC2CCCC2)c2cccnc2)c1` (centres unmarked), `Cc1ccc(N(C(=O)c2csnn2)C(C(=O)NC2CCCCC2)c2ccco2)cc1` (centres unmarked) is lower in “hERG current change (%, negative = inhibition) at 10uM” value: 1.16% for the first, -13.2% for the second.

Compared with `Nc1cc(S(=O)(=O)Nc2ccccc2Cl)ccc1N1CCCC1`, `CCN(C(=O)Cn1c(=O)oc2cc(S(=O)(=O)N3CCCC3)ccc21)c1ccc(OC)cc1` is higher in “hERG current change (%, negative = inhibition) at 10uM” value: -1.23% for the first, -0.122% for the second.

First: O=C(NNC1CC(=O)N(c2ccc(Cl)cc2)C1=O)c1ccccc1Cl (centres unmarked)
Second: O=C(O)c1cccc(NC(=O)c2ccccc2NC(=O)c2ccco2)c1
The “hERG current change (%, negative = inhibition) at 10uM” value of the first is lower: 8.19% for the first, 10.1% for the second.

Compared with `COc1ccc(C(C#N)=C2C=CC(=NO)C=C2)cc1`, `COc1ccc(NC(=O)COc2ccc(C(=O)NC3CCCc4ccccc43)cc2OC)cc1` (centres unmarked) is higher in “hERG current change (%, negative = inhibition) at 10uM” value: -3.38% for the first, 5.51% for the second.

Going from `Cc1ccccc1Cn1cnc2c([N+](=O)[O-])c(C)c(C)cc21` to `COc1ccccc1NC(=O)c1c([N+](=O)[O-])cnn1C`, the “hERG current change (%, negative = inhibition) at 10uM” value rises from -21.4% to 15%.

Compared with `C=CCn1c(C(C)NC(=O)COC)nc2ccccc21` (centres unmarked), `CC(C)C(=O)NN(C(=O)C(C)C)c1nc2ccccc2s1` is lower in “hERG current change (%, negative = inhibition) at 10uM” value: 18.7% for the first, 17.4% for the second.

First: COc1ccc(C(=O)N2CCC(n3nnc4cc(F)ccc43)CC2)cc1OC
Second: COc1ccc(CCNC(=O)C2CCCN(S(=O)(=O)c3cc(C)ccc3OC)C2)cc1OC (centres unmarked)
The “hERG current change (%, negative = inhibition) at 10uM” value of the first is lower: -61.6% for the first, -6.32% for the second.

Going from `Cc1ccc(S(=O)(=O)N(Cc2cc3cccc(C)c3[nH]c2=O)c2ccccc2)cc1` to `CC(C)CC(=O)Nc1ccc(-c2nc3ccccc3c(=O)o2)cc1`, the “hERG current change (%, negative = inhibition) at 10uM” value falls from 9.11% to -10.5%.

Compared with `CC(C)C(C)NC(=O)COc1ccc(OCc2ccccc2)cc1` (centres unmarked), `CN(C)CCCN(C(=O)COc1ccccc1)c1nc2c(F)cccc2s1.Cl` is lower in “hERG current change (%, negative = inhibition) at 10uM” value: 3.26% for the first, -81.2% for the second.

First: O=C(CCC(=O)N1CCSc2ccccc21)NC1CCCCC1
Second: COc1ccc([N+](=O)[O-])cc1N(CC(=O)NC1CCCC1)S(C)(=O)=O
The “hERG current change (%, negative = inhibition) at 10uM” value of the first is lower: -2.55% for the first, 26.5% for the second.

Compared with `CCOC(=O)c1ccc(NC(=O)CSC(=S)N2CCOCC2)cc1`, `O=C(C1=C[C@H](c2ccc(C(F)(F)F)cc2)C[C@H](OCCCCO)O1)N1CCOCC1` is lower in “hERG current change (%, negative = inhibition) at 10uM” value: 2.77% for the first, -23.7% for the second.

Going from `CC(C)(O)c1[nH]c2ccc(C(F)(F)F)cc2c1C(C)(C)O` to `COC(C)(C)[C@H](O)COc1c2ccoc2cc2oc(=O)ccc12`, the “hERG current change (%, negative = inhibition) at 10uM” value falls from 15.4% to 11.2%.

Compared with `CCOCCCNCC(=O)NC1(C)C2CCC(C2)C1(C)C.Cl` (centres unmarked), `CCOc1cc(CNCCc2ccccc2F)ccc1OC.O=C(O)C(=O)O` is lower in “hERG current change (%, negative = inhibition) at 10uM” value: -3.22% for the first, -42.1% for the second.

Compared with `O=C(c1cc(-c2ccc(O)cc2)on1)N1CCc2ccccc2C1`, `O=C(NCC1CCCO1)c1cc(-c2ccccc2)nc2ccc(Br)cc12` (centres unmarked) is higher in “hERG current change (%, negative = inhibition) at 10uM” value: -31.3% for the first, -2.11% for the second.

First: O=C(NCc1cccs1)c1ccccc1C(=O)NCc1cccs1
Second: Cc1onc(-c2ccccc2)c1C(=O)NCc1ccccc1F
The “hERG current change (%, negative = inhibition) at 10uM” value of the first is lower: -40.5% for the first, 7.62% for the second.

First: O=C(NCCCO)/C(=C\c1ccco1)NC(=O)c1ccco1
Second: CC(=O)Cc1nsc(NC(=O)c2ccco2)n1
The “hERG current change (%, negative = inhibition) at 10uM” value of the first is lower: 5.17% for the first, 11% for the second.

Compared with `CCCCN(C(=O)c1ccc2c(c1)OCCO2)c1c(N)n(CCCC)c(=O)[nH]c1=O`, `COc1ccc(CNC(=O)CN(C)S(=O)(=O)c2ccc3c(c2)OCCO3)cc1OC` is higher in “hERG current change (%, negative = inhibition) at 10uM” value: -6.19% for the first, 12.7% for the second.

Going from `c1ccc2c(c1)CC1(CCCCC1)n1nnnc1-2` to `Cc1occc1-c1nnc(SCC(=O)N2CCc3ccccc32)o1`, the “hERG current change (%, negative = inhibition) at 10uM” value rises from 0.708% to 5.69%.

Going from `C=CCn1c(C#N)c(N)sc1=N` to `C=CCC(CC=C)(NC(=O)c1cccc(C)c1)c1ccccc1`, the “hERG current change (%, negative = inhibition) at 10uM” value rises from -0.787% to 5.36%.

Going from `Cc1nn(C(=O)c2ccc([N+](=O)[O-])cc2)c(C)c1Br` to `Cc1noc(C)c1CS(=O)(=O)c1ccc(Br)cc1`, the “hERG current change (%, negative = inhibition) at 10uM” value falls from 13.9% to -0.931%.

Compared with `Cc1ccc(C(=O)N2CC(C)OC(C)C2)c(Cl)c1` (centres unmarked), `CN(C(=O)c1cc2sccc2n1C)C1CCCCC1` is lower in “hERG current change (%, negative = inhibition) at 10uM” value: -5.76% for the first, -21.5% for the second.

Going from `CCC(=O)Nc1nc2nc(C)cc(=O)n2[nH]1` to `Cc1cc(C)n(-c2ccc(C(=O)OCn3nnc4ccccc4c3=O)cc2)n1`, the “hERG current change (%, negative = inhibition) at 10uM” value rises from 6.12% to 9.96%.

Compared with `CC(=O)Nc1ccc(NC(=O)CSc2nnc(-c3ccco3)o2)cc1`, `N#Cc1cc2ccc(N3CCOCC3)cc2cc1C#N` is lower in “hERG current change (%, negative = inhibition) at 10uM” value: 7.81% for the first, -1.41% for the second.
